PubChem BioAssay (Tox21)
Several values for one entry are separate records, joined by “and”; a condition that tells them apart may be missing. Equal values may be shown once. Inconclusive results, whose numbers are uncertain, are shown with a selection of clear calls. Where the call is inconclusive, the potency comes from a doubtful curve fit. Activity calls are given as the source filed them. The call rests on the fitted dose curve; in most records, active means well fitted cell-killing curve with a large enough effect in the repeat runs; inconclusive means weak or mixed curves; inactive means flat fitted curve, though single readings scatter.

assay: qHTS RealTime-Glo MT Cell Viability Assay in HepG2 cells - 16 hour (AID 1224885); conditions: RealTime-Glo luminescence; series mostly up to 76.8 µM; further: nearly all actives have a fitted effect of over 50% in size
How it was run: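 HepG2 cells (600/well) were dispensed with RealTime-Glo reagents, incubated 5 h at 37 °C, then treated with compounds in DMSO for up to 40 h. Nonlytic NanoLuc luminescence reflecting viable cells was read at each stated time point.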
Potency means the concentration at half of the fitted maximal effect; tags describe the fitted curve by direction and shape.

**Q.** With `CCN(CC)CCOc1ccc(/C(=C(\Cl)c2ccccc2)c2ccccc2)cc1` as the molecule, how does the Potency read?
**A.** Its Potency is active: 31.6 µM and active: 23.9 µM.

**Q.** For `Cc1cc2c(C(C)C)c(O)c(O)c(C=O)c2c(O)c1-c1c(C)cc2c(C(C)C)c(O)c(O)c(C=O)c2c1O`, which Potency is on record?
**A.** Its Potency is inconclusive: 23.9 µM [cytotoxic, partial curve].

**Q.** With `CN(C)C(=S)SC(=S)N(C)C` as the molecule, how does the Potency read?
**A.** Its Potency is inconclusive: 11.2 µM [cytotoxic, full curve] and active: 2.75 µM and inconclusive: 3.01 µM [cytotoxic, full curve].

**Q.** For `O=C(NO)c1ccccc1`, which Potency is on record?
**A.** Its Potency is “inactive”.

**Q.** Which Potency does the source give for `O=S1(=O)CC(Cl)(Cl)C(Cl)(Cl)C1` here?
**A.** The Potency was active: 6.92 µM.

**Q.** With `CCc1cc(SCc2sc(-c3ccc(C(F)(F)F)cc3)nc2CN2CCN(c3ccc(OC)cc3)CC2)ccc1OCC(=O)O` as the molecule, how does the Potency read?
**A.** Its Potency is inconclusive: 54.9 µM [cytotoxic, partial curve, poor fit].

**Q.** For `Cc1cc(O)c2ccccc2c1O`, which Potency is on record?
**A.** Its Potency is active: 13.4 µM.

**Q.** With `O=C1Cc2cc(CCN3CCN(c4nsc5ccccc45)CC3)c(Cl)cc2N1` as the molecule, how does the Potency read?
**A.** Its Potency is inconclusive: 21.3 µM [cytotoxic, partial curve, poor fit].

**Q.** For `NC(=O)C1(N2CCCCC2)CCN(CCCN2c3ccccc3CCc3ccc(Cl)cc32)CC1`, which Potency is on record?
**A.** The Potency was active: 23.9 µM.

**Q.** With `CC/C(=C(\c1ccc(O)cc1)c1ccc(OCCN(C)C)cc1)c1ccccc1` as the molecule, how does the Potency read?
**A.** The Potency was active: 61.8 µM.

**Q.** Which Potency does the source give for `CCCCCCCCCCCCCCCCCC[N+](C)(C)C` here?
**A.** The Potency was inconclusive: 55.1 µM [cytotoxic, single point].
